Like-named read-outs stand apart in the source and are kept apart here. Only a part is listed here, and it is no random draw. Values belong to the compound of their own block, whether it stands above or below them.
Key:
CMK [1] = test: Secondary dose-response HTS, Cell Titer Glo; assay type: cell-based; conditions: Homo sapiens, read-out: average effective concentration, CMK
M07e [2] = test: cells; set-up: species or system AML cell lines (8); Secondary HTS, 10-point dose-response in triplicate, Cell Titer Glo viability, four-parameter fit EC50; conditions: M-07e, 72 h, read-out: M07e
MV4-11 [3] = test: cells; set-up: species or system AML cell lines (8); Secondary HTS, 10-point dose-response in triplicate, Cell Titer Glo viability, four-parameter fit EC50; conditions: Homo sapiens, MV4-11, 72 h, read-out: MV4-11
CHRF288-11 [4] = test: cells; set-up: species or system AML cell lines (8); Secondary HTS, 10-point dose-response in triplicate, Cell Titer Glo viability, four-parameter fit EC50; conditions: 72 h, read-out: CHRF288-11
ML-2 [5] = test: cells; set-up: species or system AML cell lines (8); Secondary HTS, 10-point dose-response in triplicate, Cell Titer Glo viability, four-parameter fit EC50; conditions: Homo sapiens, ML-2, 72 h, read-out: ML-2
MOLM-13 [6] = test: cells; set-up: species or system AML cell lines (8); Secondary HTS, 10-point dose-response in triplicate, Cell Titer Glo viability, four-parameter fit EC50; conditions: Homo sapiens, MOLM-13, 72 h, read-out: MOLM-13
U937 [7] = test: cells; set-up: species or system AML cell lines (8); Secondary HTS, 10-point dose-response in triplicate, Cell Titer Glo viability, four-parameter fit EC50; conditions: Homo sapiens, U-937, 72 h, read-out: U937
CMS [8] = test: Secondary dose-response HTS, Cell Titer Glo; assay type: cell-based; conditions: Homo sapiens, read-out: average effective concentration, CMS
M07e [9] = test: Secondary dose-response HTS, Cell Titer Glo; assay type: cell-based; conditions: Homo sapiens, M-07e, secondary high-throughput screen, read-out: average effective concentration, M07e
CHRF288-11 [10] = test: Secondary dose-response HTS, Cell Titer Glo; assay type: cell-based; conditions: Homo sapiens, secondary high-throughput screen, read-out: average effective concentration, CHRF288-11
MV4-11 [11] = test: Secondary dose-response HTS, Cell Titer Glo; assay type: cell-based; conditions: Homo sapiens, secondary high-throughput screen, read-out: average effective concentration, MV4-11
U937 [12] = test: Secondary dose-response HTS, Cell Titer Glo; assay type: cell-based; conditions: Homo sapiens, U-937, secondary high-throughput screen, read-out: average effective concentration, U937
MV4-11 [13] = system: MV4-11; set-up: species or system AML cell lines (8); Primary HTS, single concentration about 10 uM, Cell Titer Glo viability; log10 luminescence, per cent inhibition relative to cycloheximide control; conditions: 72 h, relative to cycloheximide control, log10 luminescence; inhibitor
U937 [14] = system: U937; set-up: species or system AML cell lines (8); Primary HTS, single concentration about 10 uM, Cell Titer Glo viability; log10 luminescence, per cent inhibition relative to cycloheximide control; conditions: 72 h, relative to cycloheximide control, log10 luminescence; inhibitor
CMK [15] = system: CMK; set-up: species or system AML cell lines (8); Primary HTS, single concentration about 10 uM, Cell Titer Glo viability; log10 luminescence, per cent inhibition relative to cycloheximide control; conditions: 72 h, relative to cycloheximide control, log10 luminescence; inhibitor
CHRF288-11 [16] = system: CHRF288-11; set-up: species or system AML cell lines (8); Primary HTS, single concentration about 10 uM, Cell Titer Glo viability; log10 luminescence, per cent inhibition relative to cycloheximide control; conditions: 72 h, relative to cycloheximide control, log10 luminescence; inhibitor
ML-2 [17] = system: ML-2; set-up: species or system AML cell lines (8); Primary HTS, single concentration about 10 uM, Cell Titer Glo viability; log10 luminescence, per cent inhibition relative to cycloheximide control; conditions: 72 h, relative to cycloheximide control, log10 luminescence; inhibitor
MOLM-13 [18] = system: MOLM-13; set-up: species or system AML cell lines (8); Primary HTS, single concentration about 10 uM, Cell Titer Glo viability; log10 luminescence, per cent inhibition relative to cycloheximide control; conditions: 72 h, relative to cycloheximide control, log10 luminescence; inhibitor
CMS [19] = system: CMS; set-up: species or system AML cell lines (8); Primary HTS, single concentration about 10 uM, Cell Titer Glo viability; log10 luminescence, per cent inhibition relative to cycloheximide control; conditions: 72 h, relative to cycloheximide control, log10 luminescence; inhibitor
M07e [20] = system: M07e; set-up: species or system AML cell lines (8); Primary HTS, single concentration about 10 uM, Cell Titer Glo viability; log10 luminescence, per cent inhibition relative to cycloheximide control; conditions: 72 h, relative to cycloheximide control, log10 luminescence; inhibitor
CMS [21] = test: Primary HTS, single concentration, Cell Titer Glo; assay type: cell-based, human; conditions: approximately 10 µM, 72 h, relative to positive control
MOLM-13 [22] = test: Secondary dose-response HTS, Cell Titer Glo; assay type: cell-based; conditions: Homo sapiens, secondary high-throughput screen, read-out: average effective concentration, MOLM-13
CHRF288-11 [23] = test: Primary HTS, single concentration, Cell Titer Glo; assay type: cell-based, human; conditions: approximately 10 µM, 72 h, relative to positive control
ML2 = test: Secondary dose-response HTS, Cell Titer Glo; assay type: cell-based; conditions: Homo sapiens; secondary high-throughput screen; ML-2; read-out: average effective concentration, ML-2
U937 [24] = test: Primary HTS, single concentration, Cell Titer Glo; assay type: cell-based, human; conditions: approximately 10 µM, 72 h, relative to positive control
[25] = system: MLLr primary AML blast samples; test: Ex vivo drug treatment of primary AML blasts on mesenchymal stromal cells; assay type: cell-based; conditions: Homo sapiens; primary blasts on MSC, 96 h, range over patient samples
Protocol: (§1) IC50 concentrations were calculated, as described above.

[26] = system: AMKL primary AML blast samples; test: as above; assay type: cell-based; conditions: Homo sapiens; primary blasts on MSC, 96 h
Protocol: as §1

MOLM-13 [27] = test: Primary HTS, single concentration, Cell Titer Glo; assay type: cell-based, human; conditions: approximately 10 µM, 72 h, relative to positive control
CMK [28] = test: Primary HTS, single concentration, Cell Titer Glo; assay type: cell-based, human; conditions: approximately 10 µM, 72 h, relative to positive control
ML-2 [29] = test: Primary HTS, single concentration, Cell Titer Glo; assay type: cell-based, human; conditions: approximately 10 µM, 72 h, relative to positive control
MV4-11 [30] = test: Primary HTS, single concentration, Cell Titer Glo; assay type: cell-based, human; conditions: approximately 10 µM, 72 h, relative to positive control
M07e [31] = test: Primary HTS, single concentration, Cell Titer Glo; assay type: cell-based, human; conditions: approximately 10 µM, 72 h, relative to positive control
[32] = secondary high-throughput screen

Structure (SMILES): CNC(=O)c1ccccc1Sc1ccc2c(/C=C/c3ccccn3)n[nH]c2c1 [AXITINIB]
EC50 (CMK [1]): 2.1 µM

Structure (SMILES): CCS(=O)(=O)N1CC(CC#N)(n2cc(-c3ncnc4[nH]ccc34)cn2)C1 [BARICITINIB]
EC50 (M07e [2]): > 10 µM | EC50 (MV4-11 [3]): > 10 µM | EC50 (CMK [1]): 0.063 µM | EC50 (CHRF288-11 [4]): > 10 µM | EC50 (ML-2 [5]): > 10 µM | EC50 (MOLM-13 [6]): > 10 µM | EC50 (U937 [7]): > 10 µM | EC50 (CMS [8]): 0.027 µM

Structure (SMILES): CC(C)OC(=O)C(C)(C)Oc1ccc(C(=O)c2ccc(Cl)cc2)cc1 [SJ000285834-7, FENOFIBRATE]
MV4-11 %inh (MV4-11 [13]): -2.641% | U937 %inh (U937 [14]): -2.311% | CMK %inh (CMK [15]): -2.08% | CHRF288-11 %inh (CHRF288-11 [16]): -0.7715% | ML-2 %inh (ML-2 [17]): -2.092% | MOLM-13 %inh (MOLM-13 [18]): -2.915% | CMS %inh (CMS [19]): -2.077% | M07e %inh (M07e [20]): -2.895%

Further lines, with some results ahead:

EC50 (MV4-11 [11]): 0.055 µM | EC50 (U937 [12]): 2.4 µM
Structure (SMILES): CO[C@@H]1[C@H](N(C)C(=O)c2ccccc2)C[C@H]2O[C@]1(C)n1c3ccccc3c3c4c(c5c6ccccc6n2c5c31)C(=O)NC4 [MIDOSTAURIN]
EC50 (CMK [1]; [32]): 0.034 µM | EC50 (M07e [9]): 0.027 µM | EC50 (CHRF288-11 [10]): 0.06 µM

EC50 (MOLM-13 [22]): 1.4 µM | IC50 [25]: 0.711 to 1.2 µM | IC50 [26]: 0.637 µM | EC50 (U937 [12]): 1.6 µM
Structure (SMILES): O=C(CCCCCCC(=O)Nc1ccccc1)NO [Vorinostat]
CMS %inh (CMS [21]): 118% | CHRF288-11 %inh (CHRF288-11 [23]): 213% | EC50 (ML2): 3.1 µM | U937 %inh (U937 [24]): 116% | EC50 (CMK [1]; [32]): 0.7 µM | EC50 (M07e [9]): 10 µM | EC50 (CHRF288-11 [10]): 2.7 µM | MOLM-13 %inh (MOLM-13 [27]): 126% | CMK %inh (CMK [28]): 120% | EC50 (CMS [8]; secondary high-throughput screen, CMS): 2.1 µM | ML-2 %inh (ML-2 [29]): 76% | MV4-11 %inh (MV4-11 [30]): 115% | M07e %inh (M07e [31]): 148%

Reference: publication PMC6522510 (Nature Communications, 2019)
